The other results are listed elsewhere or left out.
B1: chr12:76028505:76028606:-|3pUTR|ENSG00000139289|msi1|total|mutant (ssRNA)
RNA: GGGAGUUCUACAGUCCGACGAUCAAGUCUUGGUCAGUAUUUUUCCAGCAUUUAAAUUGAAACGGUCAGUAUCCGACCACUGCCCGGUUAUGCCGUCAAGAAAUAAAAACCGAAUUACAUGCUACAGAUGUCUUUAUUCUCCUUCAACAGAGGAUUGAGCAUCA
B2: chr5:103087900:103088172:-|CDS|ENSG00000145723|control|control|control (ssRNA)
RNA: GGGAGUUCUACAGUCCGACGAUCAAGGAUCGUGAACUAUUAGAAUAUAGAAAUACGAAAAUCUCUCCAUUGAUAGACGAUCAUAGUUCUCUUGAAAAGCAGACUUUCAGUCUGUUGGACUCUUCAAACCAGGUUCUUGAAUACCAACAGAGGAUUGAGCAUCA
B3: chr1:151048051:151048152:+|CDS|ENSG00000143443|unk|FALSE|unique (ssRNA)
RNA: GGGAGUUCUACAGUCCGACGAUCGACCGCCUGGCUGGACCAGCGGCUGCCGAGCUCUUGGCCGCCACGGUGUCCACCGGCUUUAGCCGGUCGUCCGCCAUUAACGAGGAGGAUGGGUCUUCAGAAGAGGGGGUUGUGAUUAAUCAACAGAGGAUUGAGCAUCA
B4: chr11:20121310:20121411:+|3pUTR|ENSG00000166833|msi1|FALSE|bound_elsewhere (ssRNA)
RNA: GGGAGUUCUACAGUCCGACGAUCAUUGUAACAUAGAAAUUGUAAAUAAUUGAUUAAAGUGCUGCAUUUUGAUGAAUUUUUUCUAGCCAUUUUUAAAGAGAAAACUAGGAAUUGAGUAUUUUGUGUACGGUAUGUUUCCAUCCUCAACAGAGGAUUGAGCAUCA
B5: chr2:224001733:224001845:-|CDS|ENSG00000135919|unk|total|mutant (ssRNA)
RNA: GGGAGUUCUACAGUCCGACGAUCGGCCUCUGUGACGCUGCCUUCCAUCUGCUCCCACUUCAAUCCUCUGUCUCUCGAGGAACCCGGCUCCAACACGGGGAUCCAGGUUUUCAAUCAGAUUGUGAAGUCGAGGCCUCAUGACAACAACAGAGGAUUGAGCAUCA
B6: chr14:23097777:23097878:+|CDS|ENSG00000179933|msi1|FALSE|unique (ssRNA)
RNA: GGGAGUUCUACAGUCCGACGAUCGAUGAAGUGUAUUCUUCACUGGUUUGCCAAUUGGUCAGGUCCCCAGCGUGAACGUUUCCUAGAGGACCUGGUAGCUAAGGCAGUGCCAGAAAAAUUACAACCACUGCUGGAUAGUCUGGACAACAGAGGAUUGAGCAUCA
B7: chr7:127374855:127374969:-|CDS|ENSG00000048405|unk|FALSE|unique (ssRNA)
RNA: GGGAGUUCUACAGUCCGACGAUCCCUAGAAGCCAUAUAUCCAAGUGUGGACAAACGAGAAUAUAUUAUUAAGCUAGAACCCAUAGAAACUAAUCAAAAUGCAGUAUUUCAAUAUAUUUCGAGGACUGAUAAUCCUAUUGAAGUCAACAGAGGAUUGAGCAUCA
B8: ENSG00000090470:stop:overlap|stop_codon|ENSG00000090470|stop_codon|NA|stop_codon (ssRNA)
RNA: GGGAGUUCUACAGUCCGACGAUCGAUGGGUCCUUCCCCCGCUCCCCAGCAACGACAUCUGGGCAACUGCUGUUAAGCUGCAUUAGUAAAGAUGCUCCAGGAGUGUGGUCCAGCCAGCGCUCUUUCCAGCUGUAAAUAUUAGCGCAACAGAGGAUUGAGCAUCA
B9: chr14:55048714:55048815:+|3pUTR|ENSG00000180008|msi1|FALSE|bound_elsewhere (ssRNA)
RNA: GGGAGUUCUACAGUCCGACGAUCUUUCUAAUUUUGAACAGAUGACUCAGUCCUAAAUCUUUGCCUUUAUUUCCUAUAAAAUGUAGGUGAUACUUGUAACUCGACUUCCUGGAGUUAAUUCUUCAGCAAGAGGUGACCCUGGGACAACAGAGGAUUGAGCAUCA
B10: chr1:223774945:223775046:+|3pUTR|ENSG00000162909|msi1|FALSE|unique (ssRNA)
RNA: GGGAGUUCUACAGUCCGACGAUCAAAUACACUUUGUAUCUGGACCUCAAAAUUAUGGGAACAUUUACUUAAACGGAUGAUCAUAGCUGAAAAUAAUGAUACUGUCAAUUUGAGAUAGCAGAAGUUUCACACAUCAAAGUAAAACAACAGAGGAUUGAGCAUCA
B11: ENSG00000107863:be:win_3751|CDS|ENSG00000107863|bound_else_gene|NA|bound_elsewhere_windowed (ssRNA)
RNA: GGGAGUUCUACAGUCCGACGAUCGAUCCUCUAGAUCGUCUGAAAACAUUAAAAAGACUAAUUCACGAUUUGCCUGAACAUCAUUAUGAAACACUUAAGUUCCUUUCAGCUCAUCUGAAGACAGUGGCAGAAAAUUCAGAAAAACAACAGAGGAUUGAGCAUCA
B12: chr13:100668578:100668794:-|CDS|ENSG00000125247|control|control|control (ssRNA)
RNA: GGGAGUUCUACAGUCCGACGAUCCACUGAUUUGGAUCACAUUCUUCCAUCUUCUGUUCUUCCUCCAUUCUGGGCUAAGUUAGUAGUGGGAUCGGUUGCCAUUGUGUGUUUUGCACGCAGCUAUGAUGGAGACUUUGUCUUUGACAACAGAGGAUUGAGCAUCA
B13: chr7:111727939:111728040:-|3pUTR|ENSG00000128512|unk|total|mutant (ssRNA)
RNA: GGGAGUUCUACAGUCCGACGAUCAAGUGGUAAACCGUGAUAAAGACUCCUUUUGUACCUUUUUAUGUUCACUUUUUUUUAUACCGUUUAAUCUUAAAACCAAUACGAUAUUGUCAAACGAUACAAUGUGUGACAAUGUUGUAUCAACAGAGGAUUGAGCAUCA
B14: chr11:113276847:113276948:+|3pUTR|ENSG00000149294|msi1|FALSE|unique (ssRNA)
RNA: GGGAGUUCUACAGUCCGACGAUCAGAAGGGAAAAGCCAGCCCUUUGUAUAGAAAUUUUGCUUUUUUUUCCCUCAUUCUACUUUAGAACUGCAAGCUUGUGCACUGUGGAUGCGUGAAUAUUUUAGUGUGAAACGUGUUUUUGUCAACAGAGGAUUGAGCAUCA
B15: ENSG00000008256:stop:overlap|stop_codon|ENSG00000008256|stop_codon|NA|stop_codon (ssRNA)
RNA: GGGAGUUCUACAGUCCGACGAUCGCAGAGAUCCCUUCUAUGACAUGUUGGCAACGAGGAAACGAAGGAUUGCCAAUAAAAAAUAGCUUUCCUGGCUAAAAGACCCAGGUAAAAGACCCAACCCCAGCAGAAAGACACCGCGGGCAACAGAGGAUUGAGCAUCA
B16: chr1:23854467:23854568:-|CDS|ENSG00000179163|unk|FALSE|unique (ssRNA)
RNA: GGGAGUUCUACAGUCCGACGAUCAAGUCAAGUGGUUUUACUCCUCAUGACCAAAUAUUCUUUCCCUCCUUAGGAUGAGGUGGUAGUAAAUGACCGAUGGGGUCAGAACUGUUCCUGUCACCAUGGAGGAUACUAUAACUGUGACAACAGAGGAUUGAGCAUCA
B17: ENSG00000198589:be:win_3301|CDS|ENSG00000198589|bound_else_gene|NA|bound_elsewhere_windowed (ssRNA)
RNA: GGGAGUUCUACAGUCCGACGAUCAUAGUAGAGGAAGAGGAAGAUGAUGAUUAUGUGGAACUGAAAGUAGAAGGCAGUCCUACUGAGGAAGCUAAUCUACCCACAGAGCUCCAAGAUAACAGUUUGUCUCCAGCUGCAUCUGAACAACAGAGGAUUGAGCAUCA
B18: chr16:82148161:82148730:-|three_prime_utr|ENSG00000135698|control|control|control (ssRNA)
RNA: GGGAGUUCUACAGUCCGACGAUCCCAGGGGUGCUUGGUGGAAGUCAGCAGGGCAUCUGGAGCUCAUCCCAAUGGUGUCUCUAUAGUUAUUAAUACUGUAACGUUUACUUGUAAAGAGAUUAUCAUUUUAGAAACAUGCUGUUUCAACAGAGGAUUGAGCAUCA
B19: chr1:149903635:149903737:-|3pUTR|ENSG00000159164|unk|FALSE|unique (ssRNA)
RNA: GGGAGUUCUACAGUCCGACGAUCGGCUGCUUUCUUUGGUGCCCUCCCCUCACCCCACUGUAGCUGUGACGUGUUGUAGUUUUUAGAUGUUUGUAAAAUGUUUAAAAAAAUGUUAAAAGGAAAAAAGUGAAAAUAACAAAAAAGCAACAGAGGAUUGAGCAUCA
B20: chr6:132588675:132589686:-|CDS|ENSG00000135569|control|control|control (ssRNA)
RNA: GGGAGUUCUACAGUCCGACGAUCUGCCAAGACCCUGGGCAUUGCUGUGGGCAUAUACCUCUUGUGCUGGCUGCCCUUCACCAUAGACACGAUGGUCGACAGCCUCCUUCACUUUAUCACACCCCCACUGGUCUUUGACAUCUUCAACAGAGGAUUGAGCAUCA
B21: chr6:136278143:136278257:-|CDS|ENSG00000029363|unk|total|mutant (ssRNA)
RNA: GGGAGUUCUACAGUCCGACGAUCACAUCCGGUGAUAUUUGGCCUGGCCUUUCAGCUUAUGAUAACCGUCCCCGAUCACCCCACCGUCCUUCACCUAUUGCUACACCACCCCGUCAGAGUUCAUCUUGCUCUGAUGCUCCCAUGCAACAGAGGAUUGAGCAUCA
B22: chr5:38481646:38481747:-|CDS|ENSG00000113594|unk|FALSE|unique (ssRNA)
RNA: GGGAGUUCUACAGUCCGACGAUCCAGACCUCAGGCCAAUGUAAAUACAUGGAAUUUAGUGUCUCCAGACUCUCCUAGAUCCAUAGACAGCAACAGUGAGAUUGUCUCAUUUGGAAGUCCAUGCUCCAUUAAUUCCCGACAAUUCAACAGAGGAUUGAGCAUCA

target: MSI1 full-length (mouse, UniProt Q61474 1-362); test: nsRBNS (natural sequence RNA bind-n-seq); RBNS binding buffer (assumed for nsRBNS): 25 mM Tris pH 7.5, 150 mM KCl, 3 mM MgCl2, 0.01% Triton X-100, 500 ug/ml BSA, 20 U/ml SUPERase-In, 4 C; UNK is unkempt and MSI1 is Musashi-1; names of the RNAs are library labels; protein concentration not given here; high values mean tight binding
Sequence of UniProt Q61474 (Q61474 whole entry): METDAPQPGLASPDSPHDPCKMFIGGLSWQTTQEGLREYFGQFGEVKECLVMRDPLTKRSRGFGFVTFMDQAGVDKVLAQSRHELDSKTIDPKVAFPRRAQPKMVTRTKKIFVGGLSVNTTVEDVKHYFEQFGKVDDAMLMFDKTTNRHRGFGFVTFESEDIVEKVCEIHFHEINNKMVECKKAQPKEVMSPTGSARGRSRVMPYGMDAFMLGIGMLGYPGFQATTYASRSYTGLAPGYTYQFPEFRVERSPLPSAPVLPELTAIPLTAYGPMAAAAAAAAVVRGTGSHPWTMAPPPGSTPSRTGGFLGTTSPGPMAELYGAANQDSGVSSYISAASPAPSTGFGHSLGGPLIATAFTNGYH

Row | Binder | binding signal [enrichment R]
1 | B1 | 0.319
2 | B2 | 2.62
3 | B3 | 0.497
4 | B4 | 2.14
5 | B5 | 0.408
6 | B6 | 0.326
7 | B7 | 28.2
8 | B8 | 0.576
9 | B9 | 0.258
10 | B10 | 0.252
11 | B11 | 0.41
12 | B12 | 0.518
13 | B13 | 3.05
14 | B14 | 5.41
15 | B15 | 0.418
16 | B16 | 0.51
17 | B17 | 0.934
18 | B18 | 4.5
19 | B19 | 2.18
20 | B20 | 0.635
21 | B21 | 0.739
22 | B22 | 0.693

Source: PMC12136788
